According to PubChem BioAssay (NCATS):
The other results are listed elsewhere or left out. Shown are side measurements of this screen, not its main read-out; they come without a call. Most of these compounds were active or inconclusive in the main read-out, so they are no random draw. Words in brackets tell the shape of the fitted curve; partial curves, single points and poor fits give uncertain potencies.

target: Catechol O-methyltransferase (Homo sapiens) (UniProt P21964); test: Confirmatory Screen for Target Class Profiling of Small Molecule Inhibitors of Methyltransferases (AID 1745852); details: MTase-Glo luminescence, SAH detection, recombinant enzyme; measured here: COMT inhibition potency;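 note: inhibitor potency for blocking SAH production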
Sequence of UniProt P21964 (P21964 whole entry, looked up): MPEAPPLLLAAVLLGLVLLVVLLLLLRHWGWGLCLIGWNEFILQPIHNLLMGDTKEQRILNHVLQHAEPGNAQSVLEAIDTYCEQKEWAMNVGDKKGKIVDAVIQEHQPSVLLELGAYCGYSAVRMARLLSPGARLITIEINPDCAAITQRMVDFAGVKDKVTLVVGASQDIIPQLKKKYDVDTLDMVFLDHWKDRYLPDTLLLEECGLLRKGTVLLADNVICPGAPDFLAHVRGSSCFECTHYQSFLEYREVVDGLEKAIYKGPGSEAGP
Tags give direction and shape of the fitted curve.

SMILES | IC50
O=C(CCc1ccccc1)N1CCNc2cnc(Nc3cccnc3)nc2C1 | 39.3 µM [falling, partial curve, poor fit]
Cc1c(OCc2ccc(C(=O)O)o2)ccc2c(-c3ccccc3)cc(=O)oc12 | 27.1 µM [falling, partial curve]
CC(C)CCNC(=O)c1ccc2c(=O)[nH]c3c(C(=O)NC(C)C)sc(=S)n3c2c1 | 24.1 µM [falling, partial curve]
O=C(NCCc1ccccc1)c1ccc2c(=O)[nH]c3c(C(=O)NCC4CCCO4)sc(=S)n3c2c1 (stereo not given) | 24.1 µM [falling, partial curve]
C=C1C(=O)OC2/C=C(/C)C3=CC(=O)C(C)(CC(OC(=O)/C(C)=C/COC(C)=O)C12)O3 (stereo not given) | 0.663 µM [falling, full curve]
N#Cc1cccc(-c2c[nH]c3ncnc(N4CCOCC4)c23)c1 | 21.5 µM [falling, partial curve]
O=C(O)c1ccc(Nc2nc3ccccc3n3cnnc23)cc1 | 21.7 µM [falling, partial curve]
O=C(/C=C/c1ccc(O)cc1)OC[C@@]1(O)C=C[C@@H]2C(C(=O)O)=CO[C@@H](O[C@@H]3O[C@H](CO)[C@@H](O)[C@H](O)[C@H]3O)[C@@H]21 | 4.7 µM [falling, partial curve]
Cc1oc(C(=O)O)cc1COc1ccc2c(-c3ccccc3)cc(=O)oc2c1C | 34.1 µM [falling, partial curve]
N#C/C(=C\c1ccc(O)c(O)c1)C(=O)NCCCNC(=O)/C(C#N)=C/c1ccc(O)c(O)c1 | 19.3 µM [falling, partial curve, poor fit]
CC(C)(O)c1ccc2c(c1)ncn2-c1cccc(-c2ccccc2C#N)c1 | 24.1 µM [falling, partial curve]
COC(=O)C1=COC(OC2OC(CO)C(O)C(O)C2O)C2C1CC(OC(=O)C(O)CC(=O)O)C2C (stereo not given) | 5.91 µM [falling, partial curve]
CCOc1cc(OCC)c2c(-c3ccccc3)cc(=O)oc2c1 | 10.8 µM [falling, partial curve]
CCCNc1ccc2ncc(-c3ccc4[nH]ncc4c3)n2n1 | 6.07 µM [falling, full curve]
O=C(NCc1ccc2c(c1)OCO2)c1sc(=S)n2c1[nH]c(=O)c1ccc(Cl)cc12 | 21.5 µM [falling, partial curve]
O=C(NCc1ccc2c(c1)OCO2)c1sc(=S)n2c1[nH]c(=O)c1cc(Cl)ccc12 | 30.4 µM [falling, single point]
C=C[C@H]1[C@H](O[C@@H]2O[C@H](CO)[C@@H](O)[C@H](O)[C@H]2O)OC=C(C(=O)OC)[C@H]1C/C=C(/C=O)[C@@H]1C(C(=O)OC)=CO[C@@H](O[C@@H]2O[C@H](CO)[C@@H](O)[C@H](O)[C@H]2O)[C@@H]1C=C | 4.03 µM [falling, partial curve]
CC1=CC(=O)CC(C)(C)C1CCC(C)O[C@@H]1O[C@H](CO[C@@H]2OC[C@@H](O)[C@H](O)[C@H]2O)[C@@H](O)[C@H](O)[C@H]1O (stereo not given in full) | 5.27 µM [falling, partial curve]
O=C1c2ccccc2-c2nc3nnnn3nc21 (tested in a mixture with another compound) | 0.215 µM [falling, full curve]
COc1ccc(-c2cnc3ccc(NCc4ccc(S(N)(=O)=O)cc4)nn23)cc1OC | 24.1 µM [falling, partial curve]
Cc1ccc(C)c(N2CCN(C(=O)c3ccc4c(=O)[nH]c5c(C(=O)NC(C)C)sc(=S)n5c4c3)CC2)c1 | 24.1 µM [falling, partial curve]
O=C(O)CC1(O)C(=O)Nc2ccccc21 (stereo not given) | 11.1 µM [falling, partial curve]
O=C(NCCc1ccc(Cl)cc1)c1ccc2c(=O)[nH]c3c(C(=O)NC4CCCC4)sc(=S)n3c2c1 | 24.1 µM [falling, single point]
COc1cc2ncnc(Nc3cccc(I)c3)c2cc1OC | 24.1 µM [falling, partial curve]
C=C(C(=O)O)[C@H]1C[C@]2(C)C(=O)CC[C@]23O[C@H]1C[C@@H]3C | 4.29 µM [falling, full curve]
